The results in this text go back to article PMC9739390.

By UniProt entry, the sequences of proteins in these tests, tags left out.
UniProt P43694: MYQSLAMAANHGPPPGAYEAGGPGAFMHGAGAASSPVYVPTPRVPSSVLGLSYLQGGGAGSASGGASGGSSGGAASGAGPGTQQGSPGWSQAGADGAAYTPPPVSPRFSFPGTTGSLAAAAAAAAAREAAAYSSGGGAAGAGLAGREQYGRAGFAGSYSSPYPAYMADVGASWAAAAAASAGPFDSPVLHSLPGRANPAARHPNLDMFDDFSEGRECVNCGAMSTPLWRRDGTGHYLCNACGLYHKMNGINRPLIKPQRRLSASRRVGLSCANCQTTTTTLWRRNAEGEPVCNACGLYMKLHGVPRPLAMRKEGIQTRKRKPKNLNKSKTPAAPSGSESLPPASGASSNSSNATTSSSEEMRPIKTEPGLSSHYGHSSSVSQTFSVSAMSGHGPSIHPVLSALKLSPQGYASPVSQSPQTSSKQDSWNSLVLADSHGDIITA
UniProt P52952: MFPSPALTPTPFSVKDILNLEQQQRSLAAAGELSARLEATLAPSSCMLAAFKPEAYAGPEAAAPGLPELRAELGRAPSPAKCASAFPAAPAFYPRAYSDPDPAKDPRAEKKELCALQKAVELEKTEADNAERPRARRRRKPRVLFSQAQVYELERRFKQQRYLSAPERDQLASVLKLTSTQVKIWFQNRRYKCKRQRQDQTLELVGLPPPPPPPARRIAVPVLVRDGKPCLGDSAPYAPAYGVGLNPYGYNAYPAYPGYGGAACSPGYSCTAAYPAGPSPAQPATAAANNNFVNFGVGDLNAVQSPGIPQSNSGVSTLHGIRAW

Test [1] deals with T1, IRX3 (human) (UniProt P78415).
T1 sequence: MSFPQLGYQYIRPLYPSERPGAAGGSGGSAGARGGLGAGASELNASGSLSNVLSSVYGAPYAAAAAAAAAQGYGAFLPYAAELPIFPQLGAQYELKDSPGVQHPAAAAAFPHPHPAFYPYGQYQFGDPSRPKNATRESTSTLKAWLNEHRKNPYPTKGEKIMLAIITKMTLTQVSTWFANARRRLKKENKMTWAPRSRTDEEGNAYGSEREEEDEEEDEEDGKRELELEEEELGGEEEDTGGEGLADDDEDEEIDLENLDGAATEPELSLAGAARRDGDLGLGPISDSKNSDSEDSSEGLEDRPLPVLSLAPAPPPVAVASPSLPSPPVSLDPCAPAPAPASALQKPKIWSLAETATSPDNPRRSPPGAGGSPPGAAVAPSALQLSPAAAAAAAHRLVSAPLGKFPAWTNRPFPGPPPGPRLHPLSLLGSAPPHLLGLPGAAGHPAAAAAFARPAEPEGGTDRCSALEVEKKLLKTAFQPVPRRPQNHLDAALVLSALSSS
In words: co-IP; as a1, but HEK293 co-transfected with three TFs: IRX3, IRX5 and GATA4.

Test [2] has as its target T2, IRX5 (human) (UniProt P78411).
T2 sequence: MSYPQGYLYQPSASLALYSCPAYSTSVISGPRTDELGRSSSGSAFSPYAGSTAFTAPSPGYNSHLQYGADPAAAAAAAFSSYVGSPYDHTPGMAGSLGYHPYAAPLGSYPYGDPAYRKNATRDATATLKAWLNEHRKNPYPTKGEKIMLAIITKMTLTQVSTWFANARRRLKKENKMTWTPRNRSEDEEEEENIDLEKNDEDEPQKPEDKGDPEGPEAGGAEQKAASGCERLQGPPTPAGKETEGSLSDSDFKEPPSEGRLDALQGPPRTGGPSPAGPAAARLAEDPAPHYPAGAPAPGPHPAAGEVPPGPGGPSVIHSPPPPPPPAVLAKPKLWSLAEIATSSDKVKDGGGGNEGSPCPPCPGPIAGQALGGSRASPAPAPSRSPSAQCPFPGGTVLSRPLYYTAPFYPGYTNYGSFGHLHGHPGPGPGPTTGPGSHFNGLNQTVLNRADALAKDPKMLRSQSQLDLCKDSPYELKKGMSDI
The test is described as above.

The target in test [3] is T1, IRX3 (human). Kind of test: co-IP; as a1, but HEK293 co-transfected with four TFs: IRX3, IRX5, GATA4 and NKX2-5.
The target in test [4] is T2, IRX5 (human). Described as above.
Test [5] addresses T1, IRX3 (human). In words: co-IP; as a1, but HEK293 co-transfected with five TFs: IRX3, IRX5, GATA4, NKX2-5 and TBX5.
Test [6] addresses T2, IRX5 (human). The test is described as above.
Test [7] concerns the target T1, IRX3 (human). In words: co-IP; HEK293 co-transfected with the two TFs of the pair, lysed 24 h post-transfection (1% TritonX-100, 100 mM NaCl, 50 mM Tris-HCl, 1 mM EGTA); antibody cross-linked to Dynabeads Protein G, 1 mg lysate, 4 °C, 2 h; Western blot; precipitating antibody not given. Background: Immunoblotting shows a protein as a band on a membrane.
The target in test [8] is T2, IRX5 (human). The test is described as above.
In test [9] the target is T1, IRX3 (human). Kind of test: condition: only with IRX5, GATA4 and TBX5 co-transfected; co-IP; as a1, but HEK293 co-transfected with five TFs: IRX3, IRX5, GATA4, NKX2-5 and TBX5.
Test [10] concerns the target T1, IRX3 (human). Kind of test: condition: only with IRX5, GATA4 and NKX2-5 co-transfected; co-IP; as a1, but HEK293 co-transfected with five TFs: IRX3, IRX5, GATA4, NKX2-5 and TBX5.
Test [11] concerns the target T2, IRX5 (human). Kind of test: condition: only with GATA4 and NKX2-5 co-transfected; co-IP; as a1, but HEK293 co-transfected with four TFs: IRX3, IRX5, GATA4 and NKX2-5.
For test [12], the target named is T2, IRX5 (human). In words: condition: only with GATA4, NKX2-5 and TBX5 co-transfected; co-IP; as a1, but HEK293 co-transfected with five TFs: IRX3, IRX5, GATA4, NKX2-5 and TBX5.

Results are given in words; binding and its absence hold for the method and conditions named. In cells and extracts the contact can be indirect. Some entries that bind do so weakly or less than the wild type.

As for GATA4 (from UniProt P43694 1-442), the binding entry in test [1] is recorded as “no binding”; in test [2], “binds”; in test [3] it was “no binding”; in [4] it was “binds”; in test [5] it was “no binding”; in test [6], “binds”. Also, the binding entry is “no binding” in test [7] and “binds” in [8].

Turning to NKX2-5 (from UniProt P52952 1-324), the binding result was “no binding (condition: with IRX5 and GATA4 co-transfected)” in [3]; “binds” in [4]; “binds” in test [6]; “no binding” in test [9]; “binds” in test [7]; “binds” in test [8].

B1: TBX5 (protein, UniProt Q99593 1-518)
chain: MADADEGFGLAHTPLEPDAKDLPCDSKPESALGAPSKSPSSPQAAFTQQGMEGIKVFLHERELWLKFHEVGTEMIITKAGRRMFPSYKVKVTGLNPKTKYILLMDIVPADDHRYKFADNKWSVTGKAEPAMPGRLYVHPDSPATGAHWMRQLVSFQKLKLTNNHLDPFGHIILNSMHKYQPRLHIVKADENNGFGSKNTAFCTHVFPETAFIAVTSYQNHKITQLKIENNPFAKGFRGSDDMELHRMSRMQSKEYPVVPRSTVRQKVASNHSPFSSESRALSTSSNLGSQYQCENGVSGPSQDLLPPPNPYPLPQEHSQIYHCTKRKEEECSTTDHPYKKPYMETSPSEEDSFYRSSYPQQQGLGASYRTESAQRQACMYASSAPPSEPVPSLEDISCNTWPSMPSYSSCTVTTVQPMDRLPYQHFSAHFTSGPLVPRLAGMANHGSPQLGEGMFQHQTSVAHQPVVRQCGPQTGLQSPGTLQPPEFLYSHGVPRTLSPHQYHSVHGVGMVPEWSDNS
Consider B1, for which the binding result is given as “binds” in test [6], “no binding” in [10] and “binds” in test [7].

B2: IRX3 (protein, UniProt P78415 1-501)
chain: MSFPQLGYQYIRPLYPSERPGAAGGSGGSAGARGGLGAGASELNASGSLSNVLSSVYGAPYAAAAAAAAAQGYGAFLPYAAELPIFPQLGAQYELKDSPGVQHPAAAAAFPHPHPAFYPYGQYQFGDPSRPKNATRESTSTLKAWLNEHRKNPYPTKGEKIMLAIITKMTLTQVSTWFANARRRLKKENKMTWAPRSRTDEEGNAYGSEREEEDEEEDEEDGKRELELEEEELGGEEEDTGGEGLADDDEDEEIDLENLDGAATEPELSLAGAARRDGDLGLGPISDSKNSDSEDSSEGLEDRPLPVLSLAPAPPPVAVASPSLPSPPVSLDPCAPAPAPASALQKPKIWSLAETATSPDNPRRSPPGAGGSPPGAAVAPSALQLSPAAAAAAAHRLVSAPLGKFPAWTNRPFPGPPPGPRLHPLSLLGSAPPHLLGLPGAAGHPAAAAAFARPAEPEGGTDRCSALEVEKKLLKTAFQPVPRRPQNHLDAALVLSALSSS
Regarding B2, the binding result in [2] is “no binding (condition: with GATA4 co-transfected)”; in test [11], “no binding”; in test [12], “no binding”; in [8], “binds”.
